Results on 27 variants are retold here after the RNAGym collection of RNA variant scans (doi:10.1101/gad.245936.114).

Variants at the background level are over-represented here.

B1: tRNA (parent)
chain: CUCUCGGUAGCCAAGUUGGUUUAAGGCGCAAGACUUUAAUUUAUCACUACGAAAUCUUGAGAUCGGGCGUUCGACUCGCCCCCGGGAGAUUUUUUCCUCGAGCAA

In this data set the parent is B1. The data set is described as follows: nonsense suppression (GFP-seq) (ratio to wild type); higher = more function; SUP4oc tRNA, yeast GFP reporter sort-seq. The essentials:
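Nonsense suppression (GFPSEQ) is the median GFP/RFP ratio of each sorting bin, weighted by the variant's estimated share of cells in that bin and expressed relative to the unmutated parent tRNA. Yeast strains carried genome-integrated variants of an ochre-suppressor tRNA from a library with ~3% random mutations, plus a galactose-driven GFP ochre reporter and RFP, and were grown in raffinose/galactose medium containing 80 mg/L adenine. Cells were sorted into GFP/RFP bins, each bin was Illumina-sequenced (phred ≥30), and variants were kept only with ≥100 reads and ≥30 cells.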
For CUCUCGCUAGCCAAGUUGGUUUAAGGCGCAAGACUUUAAUUUAUCACUACGAAAUCUUGAGAUCGGGCGUUUGACUCGCCCCCGGGAGAUUUUUUCCUCGAGCAA, the nonsense suppression was ≤ 0.026. In the case of CUCUCGGUAGCCUAGUUGGUUUAAUGCGCAAGACUUUAAUUUAUCACUACGAAAUCUUGAGAUCGGGCGUUCGACUCGCCCCCGGGAGAUUUUUUCCUCGAGCAA, the nonsense suppression is ≤ 0.026. Regarding CUCUCGGUAGACGAGUUGGUUUAAGGCGCAAGACUUUAAUUUAUCACUACGAAAUCUUGAGAUCGGGCGUUCGACUCGCCCGCAGGAGAUUUUUUCCUCGAGCAA, the nonsense suppression was ≤ 0.026. CUCUCGGUAGCCAAGUUGGUUUAAUGCGCAAGACUUUAAUUUAUCACUACGAAAGCUUGAGAUCGGGCGUUCGACUCGCCCCCGGAAGAUUUUUUCCUCGAGCAA: the nonsense suppression is ≤ 0.026. Regarding CUCUCUGUAGCCAAGGUGGUUUAAGUCGCAAGACUUUAAUUUAUCACUACGAAAUCUUGAGAUCGGCCGUUCGACUCGCCCCCGGGAGAUUUUUUCCUCGAGCAA, the nonsense suppression is ≤ 0.026. To CUCUCGGUAGCCAAGUUGGUUUAUGGCUCAAGACUUUAAUUUAUCACUACGAAAUCUUGAUAUCGGGCGUUCGACUCGCCCCCGGGAGAUUUUUUCCUCGAGCAA belongs ≤ 0.026. Then CUUUCGGUAGCCAAGUCGGUUUAAGGCGCAAGACUUUAAUUUAUCACUACGAAAUCUUGAGAUCGGGCGUUCGACUCGUCCCCGGGAGAUUUUUUCCUCGAGCAA, with ≤ 0.026; and CUCUCGGUAGCCUAGUUGGUUUAAGGCGCAAGUCUUUAAUUUAUCACUACGAAAUCUUGAGAUCGGGCGUUCGACUCACCCCCGGGAGAUUUUUUCCUCGAGCAA, with ≤ 0.026; and CUCUCGGUAGAUAAGUUGGUUUAAGGCGCCAGACUUUAAUUUAUCACUACGAAAUCCUGAGAUCGGGCGUACGACCCGCCCCCGGGAGAUUUUUUCCUCGAGCAA, with ≤ 0.026. To CUCUCGGUAGCCAAGUUGGUUUAAGGCGUAAGACUUUAAUUUAUCACUACGAAAUCUUGAGAUCGGGCGUUCGACUCGCCCCCGGGAGUUUUUUUCCUCGAGCAA belongs ≤ 0.026; to CUCUCGGUAGCCAAGUUGGUUUAAGGCGCAAGACUUUAAUUUAUCACUACGAAAUCUUGAGAGCGGGCCUUCGACUCGCCCCCGGGAGAUUUUUUCCUCGAGCAA, ≤ 0.026; to CUCUCGGUAGCCCAGUUGGUUUAAGGCGCAAGACUUUAAUUUAUCACUACGAAAUCUUGAGAUCGGACGUUCGCCUCGCCCCCGGGAGAUUUUUUCCUCGAGCAA, ≤ 0.026. As for CUCUCGGUGGCCAAGUUGGUUUAAGGAGCAAGACAUUAAUUUAUCACUACGAAAUCUUGAGAUCGGGCGUUCGACUCGCCCCCGGGAAAUUUUUUCCUCGAGCAA, the nonsense suppression is ≤ 0.026. For the variant CUCUCGGUAGCCGAGUUCGUUUAAGGCGCAAGACUUUAAUUUAUCACUACGAAAUCUUGAAAUCGGGCGUUCGACUCGCCCCCGGGAGAUUUUUUCCUCGAGCAA, the nonsense suppression was ≤ 0.026.

In the case of CUCUCGGUAGCCAAGUUGGGUUAAGUCGCAAGACUUUAAUUUAUCACUACGAAAUCUUGAGAUCGGGCGUUCGACUCGCCCCCGUGAGAUUUUUUCCUCGAGCAA, the nonsense suppression was ≤ 0.026.

CUCUCGGUAGCCAAGUUGGUUUAAGGGGCAAGACUUUAAUUUAUCACUACGAAAUCUUGAGAUCGGGCGUUCGACUCGGCCCCGGGAGAUUUUUUCCUCGAGCAA: the nonsense suppression is ≤ 0.026. Then CUCUCGGUAGCCAAGGUGGUUUAAGGCGCAAGGCUUUAAUUUAUCACUACGAAAUCUUGAGAUCGGGCGGUCGACUCGCCCCCGGGAGAUUUUUUCCUCGAGCAA, with ≤ 0.026; and CGCUCGGUAGCCAAGUUGUUUUAAGGCGCAAGACUUUAAUUUAUCACUACGAAAUCUUGAGAUCGGGCGUUCGACUCGCCCCCGGGAGAUUUUUUCCUCGAGCAA, with ≤ 0.026; and CUCUCGGUAGCCAAGUUGGUUUAAGGCCCAAGACUUUAAUUUAUCACUACGAAAUCUUGAGAUCGGGCGUUCGACUCGCCCCCGUGAGAUUUUUUCCUCGAGCAA, with 0.208. Then CUCACGGUAGCCAAGUUGGGUUAAGGCGCAAGAUUUUAAUUUAUCACUACGAAAUCUGGAGAUCGGGCGUUCGACUCGCCCCCGGGAGAUUUUUUCCUCGAGCAA, with ≤ 0.026; and CUCUCGGUAGCCAAGUGGGUUUAAGGCGCAAGACUUUAAUUUAUCACUACGAAAUCUUGAGAUACGGCGUUCGACUCGCCCCCGGGAGAUUUUUUCCUCGAGCAA, with ≤ 0.026. Consider CGCUCGGUAGCCAAGUUGGUUUAAGGCGCAUGACUUUAAUUUAUCACUACGAAAUCUUGAGAUCGGGCGUUCGACUCGCCCCCGGGAGAUUUUUUCCUCGAGCAA, for which the nonsense suppression is ≤ 0.026. To CUCUCGGUAGCAAAGUUGGUUUAGGGCGCAAGACUUUAAUUUAUCACUACGAAAUCUUGAGAUCCGGCGUUCGACUCGCCCCCGGGAGAUUUUUUCCUCGAGCAA belongs ≤ 0.026.

For the variant CUCUCGGUAGCCAAGUUGAUAUAAGGCGCAAGACUUUAAUUUAUCACUACGAAAUCUUGAGAUCGGGCGUUCGACUCGCCCCCGGGAGAUUUUUUCCUCGAGCAA, the nonsense suppression is ≤ 0.026. To CUCUCGGUAGCCAAGUUGGUUUAAGGCGCAAGACUUUAAUUUAUCACUACGAAAUCUUGGGAUCGGGCGUUCGACUCGCCCGCGGGAGAUUUUUUCCUCGAGCAA belongs ≤ 0.026; to CUCUCGGUACCCAAGUCGGUUUAAGGCGCAAGACUUUAAUUUAUCACUACGAAACCUUGAGAUCGGGCGUUGGACUCUCCCCCGGGAGAUUUUUUCCUCGAGCAA, ≤ 0.026; to CUCUCGGUAGCUAAGUUGGUUUAAGGCGCAAGACCUUAAUUUAUCACUACGAAAUCUUGAGAUCGGGCGUUCGACUCGCCCCCGGGAGAUUUUUUCCUCGAGCAA, 0.0352.
